Experimental data taken from PubChem BioAssay AID588855 (National Center for Advancing Translational Sciences (NCATS), 2011).
The whole screen tested about 410,000 compounds, of which about 5,000 (1.2%) were called active. The inconclusive results got no clear call from the source; some entries with a clear call stand among them for comparison. The call rests on the fitted dose curve; in most records, active means well fitted inhibition curve with a large enough effect; inconclusive means small, poorly fitted or top-dose-only effect; inactive means no such curve, though single readings can be large or run the other way. Potencies of inconclusive entries are doubtful fits and often do not repeat.

Assay: qHTS for Inhibitors of TGF-b; further: nearly all actives have a fitted effect of over 65% in size
Conditions: HepG2 CAGA-GFP TGF-b/SMAD3 reporter, GFP fluorescence, 18 h, TGF-beta stimulated, 500 pg/mL final; series mostly up to 46.1 µM
In short: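 Inhibition of TGF-beta-driven CAGA-GFP reporter expression in HEPG2 cells is measured by cellular GFP fluorescence after 18 h stimulation with 500 pg/mL recombinant TGF-beta in 1% FBS medium at 37 degrees C.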
Potency means the concentration at half of the fitted maximal effect; tags describe the fitted curve by direction and shape.

Question: Which Potency does the source give for `COC(=O)CCC(=O)OC1(C)C(=O)C=C2C=C(C3CC3)N(C3CCCCC3)C=C2C1=O` (stereo not given) here?
Answer: inconclusive: 0.631 µM [inhibitor, full curve, poor fit]

Question: Which Potency does the source give for `CC(=O)Oc1c(Cl)c(N2CCOCC2)c(OC(C)=O)c2ccccc12` here?
Answer: inactive

Question: For `Cc1onc(-c2ccccc2)c1C(=O)Nc1ccccc1N1CCOCC1`, which Potency is on record?
Answer: inconclusive: 1 µM [inhibitor, partial curve, poor fit]

Question: With `C/C(=N\OCC(=O)N/N=C/c1ccccc1O)c1cccs1` as the compound, how does the Potency read?
Answer: inconclusive: 11.2 µM [inhibitor, single point]

Question: For `CC(O)(c1ccc(F)c(F)c1)c1nc(-c2cccc(C#N)c2)cs1` (stereo not given), which Potency is on record?
Answer: inconclusive: 11.2 µM [inhibitor, single point]

Question: For `COc1cc(/C=C/C(=O)O)cc(S(=O)(=O)NNC(=O)c2cc(C)oc2C)c1OC`, which Potency is on record?
Answer: inactive

Question: With `Cc1ccc(-c2nc(C#N)c(NCc3cccc4c3OCO4)o2)cc1` as the compound, how does the Potency read?
Answer: inconclusive: 25.1 µM [inhibitor, single point]

Question: For `NCCN1CCN2C(=O)CN(C(=O)c3ccccc3)CC12` (stereo not given), which Potency is on record?
Answer: inconclusive: 3.16 µM [inhibitor, single point]

Question: Which Potency does the source give for `C(=C/c1ccnc2nc(SC/C=C/c3ccccc3)nn12)/c1ccccc1` here?
Answer: inactive

Question: For `Cc1ccc(CNS(=O)(=O)c2cc(C(=O)Nc3ccc(C(C)C)cc3)ccc2F)cc1`, which Potency is on record?
Answer: inconclusive: 14.1 µM [inhibitor, single point]

Question: For `S=C1SCN(Cc2cccnc2)CN1Cc1ccccc1`, which Potency is on record?
Answer: inconclusive: 20 µM [inhibitor, single point]

Question: For `CCOC(=O)Nc1cc2c(c(N)n1)N=C(c1ccccc1)CN2`, which Potency is on record?
Answer: inconclusive: 0.631 µM [inhibitor, partial curve, poor fit]

Question: Which Potency does the source give for `Cc1ccc(C)c(N2CCN(C(=O)CCS(=O)(=O)c3ccc4c(c3)NC(=O)C(C)S4)CC2)c1` (stereo not given) here?
Answer: inconclusive: 1.26 µM [inhibitor, full curve, poor fit]

Question: With `O=S(=O)(c1ccc(Cl)cc1)N1c2ccccc2Oc2nc3ccccc3nc21` as the compound, how does the Potency read?
Answer: inactive

Question: With `COc1ccc([C@@H]2C[C@H]3[C@@H](CN2S(=O)(=O)c2ccccc2)C(=O)C[C@@H](c2ccccc2)N3S(=O)(=O)c2ccc(C)cc2)cc1` as the compound, how does the Potency read?
Answer: inconclusive: 35.5 µM [inhibitor, single point]

Question: Which Potency does the source give for `CC(C)(C)NC(=O)Cn1c(SCC(N)=O)nc2ccccc21` here?
Answer: inactive

Question: With `CCCCN(C)c1c(C)nc2ccc(C(=O)NCCc3c[nH]c4ccccc34)cn12` as the compound, how does the Potency read?
Answer: inconclusive: 35.5 µM [inhibitor, single point]

Question: With `COCCn1c(N)c(S(=O)(=O)c2cccs2)c2nc3ccccc3nc21` as the compound, how does the Potency read?
Answer: inactive

Question: With `O=C(Nc1ccc(F)c(F)c1)c1cc(S(=O)(=O)N2CCc3ccccc32)ccc1F` as the compound, how does the Potency read?
Answer: inconclusive: 11.2 µM [inhibitor, partial curve, poor fit]

Question: With `CCOc1cc(/C=C2\SC(=O)N(c3ccc(O)cc3)C2=O)ccc1O` as the compound, how does the Potency read?
Answer: inconclusive: 35.5 µM [inhibitor, single point]

Question: For `Cc1ccc(C)c(N(C)C(=O)c2cc3c(s2)-c2ccccc2OC3)c1`, which Potency is on record?
Answer: inconclusive: 14.1 µM [inhibitor, single point]

Question: With `COc1ccc(N2CCN(C(=O)CN3CCN(C(c4ccccc4)c4ccccc4)CC3)CC2)cc1` as the compound, how does the Potency read?
Answer: inconclusive: 35.5 µM [inhibitor, single point]

Question: Which Potency does the source give for `Cc1cc(=O)n(CC(=O)N2CCCc3ccccc32)c2c1c(C)nn2-c1cccc(F)c1` here?
Answer: inactive

Question: With `O=C(Cn1cc2c(n1)CCCC2)Nc1cc(-c2cccc(Cl)c2)no1` as the compound, how does the Potency read?
Answer: inconclusive: 15.8 µM [inhibitor, partial curve, poor fit]

Question: Which Potency does the source give for `CCOC(=O)C1=C(COc2ccc(C)cc2)NC(=O)NC1c1cc(C)ccc1C` (stereo not given) here?
Answer: inconclusive: 5.62 µM [inhibitor, single point]

Question: Which Potency does the source give for `O=C(NCc1cccc(Cl)c1)c1cccc2c(-c3cccnc3)coc12` here?
Answer: inconclusive: 11.2 µM [inhibitor, single point]

Question: For `Cc1ncoc1C(=O)NC1CCCc2c1cnn2-c1ccc(C(C)(C)C)cc1` (stereo not given), which Potency is on record?
Answer: inconclusive: 11.2 µM [inhibitor, partial curve, poor fit]

Question: For `COc1ccc(-c2noc(CCC(=O)N3CCN(c4ccccc4Cl)CC3)n2)cc1`, which Potency is on record?
Answer: inconclusive: 25.1 µM [inhibitor, single point]

Question: Which Potency does the source give for `CCOC(=O)[C@H]1[C@H]2COc3ccc(OC)cc3[C@@H]2N2C(=O)CN(CCc3c[nH]c4ccccc34)C(=O)[C@@]12C` here?
Answer: inconclusive: 3.16 µM [inhibitor, single point]

Question: For `CCOc1cc(/C=N/NC(=O)c2ccncc2)cc(Cl)c1OS(C)(=O)=O`, which Potency is on record?
Answer: inconclusive: 1.26 µM [inhibitor, full curve, poor fit]

Question: With `Cc1ccc(S(=O)(=O)Nc2ccc3cn[nH]c3c2)c(C)c1` as the compound, how does the Potency read?
Answer: inactive

Question: For `S=C1NC[C@H](CC2CCCCC2)N1CCc1cccc2ccccc12`, which Potency is on record?
Answer: inconclusive: 11.2 µM [inhibitor, partial curve, poor fit]

Question: With `CNC(=O)C[C@H]1C(=O)N(c2ccc(OC)cc2)C[C@@H]1Cc1ccccc1` as the compound, how does the Potency read?
Answer: inactive

Question: Which Potency does the source give for `CCc1cccc2c(C(=O)COC(=O)c3ccc([N+](=O)[O-])s3)c[nH]c12` here?
Answer: inconclusive: 25.1 µM [inhibitor, single point]

Question: Which Potency does the source give for `COc1cccc(N2C(=O)C(CC(=O)Nc3ccccc3)N(CCc3sccc3C)C2=O)c1` (stereo not given) here?
Answer: inconclusive: 35.5 µM [inhibitor, single point]

Question: For `CC1CCCN(S(=O)(=O)c2cnc[nH]2)C1` (stereo not given), which Potency is on record?
Answer: inactive

Question: With `NC(=O)[C@H]1CC2(CC(c3cccc(NC(=O)[C@H]4CCC(=O)N4)c3)=NO2)CN1C(=O)c1cc([N+](=O)[O-])cc([N+](=O)[O-])c1` (stereo not given in full) as the compound, how does the Potency read?
Answer: inconclusive: 35.5 µM [inhibitor, single point]

Question: With `Cc1ccc(-c2ccc3c(c2)O[C@H](CN(C)C(=O)CC2CC2)[C@H](C)CN([C@@H](C)CO)S3(=O)=O)cc1` as the compound, how does the Potency read?
Answer: inactive

Question: With `Cc1cc(C(=O)OCC(=O)N2c3ccccc3NC(=O)C2(C)C)c(C)n1-c1ccccc1` as the compound, how does the Potency read?
Answer: inconclusive: 20 µM [inhibitor, single point]

Question: Which Potency does the source give for `CCCCN(Cc1ccccc1)S(=O)(=O)c1ccc2[nH]c(=O)oc2c1` here?
Answer: inconclusive: 15.8 µM [inhibitor, single point]
